Publication PMC12136788
This is one part of the list.

T1: UNK ZnF1-3 (human, UniProt Q9C0B0 31-174)
T1 sequence: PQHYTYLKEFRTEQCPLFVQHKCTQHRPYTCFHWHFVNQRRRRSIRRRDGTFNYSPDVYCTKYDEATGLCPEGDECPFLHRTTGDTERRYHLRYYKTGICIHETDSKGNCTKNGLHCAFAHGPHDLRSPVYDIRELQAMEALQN

B1: chr2:30258285:30258286:-_ENSMUSG00000026853_ENSMUST00000028207|mus_mus|FALSE|FALSE (ssRNA)
RNA: GGGAGUUCUACAGUCCGACGAUCGGCCUCCAUGGGGUUGUAGCAGAUGCCAUAACCAUCUGGGACCACAGGUCCGAAGAACAUGACACAGUCUGUCUUGGCAGGGACCUGGCUGGUAGAGAGGUUGAAGUGCAUAGCAAUGGCCAACAGAGGAUUGAGCAUCA
B2: chr7:141441981:141441982:+_ENSG00000106028_ENST00000265304|hu_mus|hu_hu_hu_mus_False|28_88 (ssRNA)
RNA: GGGAGUUCUACAGUCCGACGAUCCUCAUGUCUUACAAACUGACGAAGUACCUGUAACACAGGUCUUCGAAACAUGGCUUCUGUUUUUCUUACAACCUAAUCUUUAGUUAGGCUUUUAAGGAAAGAAAGAAAAGAGAAAAAUGACAACAGAGGAUUGAGCAUCA
B3: chr4:58499471:58499472:-_ENSMUSG00000038668_ENSMUST00000055018|mus_hu|FALSE|FALSE (ssRNA)
RNA: GGGAGUUCUACAGUCCGACGAUCAGCAUAGAGAACCACCAUUACCACAAAGGUCACCAAGUUGAAAAUGGCCCAGAAGACUAAGUAAGAGUCACUGUAGAGGGGUGCCAUGUUGGAACAAUUUUCAAUAUCACAGAUACAGUUCAACAGAGGAUUGAGCAUCA
B4: chr2:202488911:202488912:-_ENSG00000155755_ENST00000286196|hu_mus|hu_hu_hu_mus_False|48_78 (ssRNA)
RNA: GGGAGUUCUACAGUCCGACGAUCAUUGAAACAUUUUUCAUAAUCUCCAGUAGCAUUCAGUAUUAUAGUAACAAAAGCUCAAUUGUAAAUACACAUGUCUUAUAAAAAUACACUUAAAAACACGAGUGGGGAGCGCAGGCGCCACAACAGAGGAUUGAGCAUCA
B5: chr4:155069534:155069535:+_ENSMUSG00000074738_ENSMUST00000099265|mus_hu|motif|central (ssRNA)
RNA: GGGAGUUCUACAGUCCGACGAUCGUGAGCCGGAGUGCCCAUGGCUCUUGCUGGAAGGGGCUCCAUGCCCUGGCCGCCUCGGUAAAGGCCUGCGGAGAGCGGGGAGAGCCCUGGAUGCGGCUGGCACAGCAGCGCAAGCCCAGGCAACAGAGGAUUGAGCAUCA
B6: chr4:144460044:144460045:+_ENSG00000153147_ENST00000283131|hu_mus|hu_hu_hu_mus_False|28_88 (ssRNA)
RNA: GGGAGUUCUACAGUCCGACGAUCACGGUCCAUAGCCUGAAGAUCAACUUGGGGAUUCCAAUCUGAGUCAUAUAAAAUGACUACAUCAGCAGUUGCAAGAUUGAUGCCAAGACCACCAGCACGUGUGCUUAGCAUAAAUACAAACAACAGAGGAUUGAGCAUCA
B7: chr11:82972979:82972980:-_ENSG00000137500_ENST00000527495|hu_hu|FALSE|FALSE (ssRNA)
RNA: GGGAGUUCUACAGUCCGACGAUCAGCCACAGCAGGAUGAGCAUUAAUACUACUUCCAGAAUCUAUAAAAUCCCAAUGCUAUUGCCAGGCAAGUAAACACCGAAGCUUUUUUGUAAAUUCUGUAGUUGUUUCCAUAAGUUGCUUCAACAGAGGAUUGAGCAUCA
B8: chr22:19442333:19442334:-_ENSG00000070010_ENST00000399523|hu_hu|FALSE|FALSE (ssRNA)
RNA: GGGAGUUCUACAGUCCGACGAUCGACUGUCCUUCUCCAGAGAAAGCGACGAAUCUGCCUCCAGCUUCAUCCAAGUUUAAAUUCAUAAUUGGGAAUUCCUCUUUUAAUAUCUCCAGGCUUGAUUGGGGAGGGGCUGGGCUCUACCAACAGAGGAUUGAGCAUCA
B9: chr3:122252165:122252166:-_ENSMUSG00000039735_ENSMUST00000162409|mus_hu|motif|central (ssRNA)
RNA: GGGAGUUCUACAGUCCGACGAUCAAUGCGCUGCUGUAGUUUUUUACGUCUCUGUUCUGGUGGCAGAUGACUGAAAUCUUCGGGUGCUGGGCCCUUUGGCUUCUUUCCAAAGAGCCACAAUUUGCCCUUGGCCUUUCCUACUGUCAACAGAGGAUUGAGCAUCA
B10: chr9:14812383:14812384:-_ENSMUSG00000031934_ENSMUST00000164273|mus_mus|mus_mus_mus_hu_True|88_108 (ssRNA)
RNA: GGGAGUUCUACAGUCCGACGAUCAUAGCUCAAGUAGAUACACGCUAACAGUAUAACGAUGAGUGUCAGCAGGCGGCAGCUAAUGUACUUGAUGAUUAAAUUAUUAGAAUUUUUCUUUGUCUUCAAGUACUGCUCCACAAUUGGCAACAGAGGAUUGAGCAUCA
B11: 118656797_118656917_409_3pUTR_ENSG00000110367_ENST00000264018|human|control|control (ssRNA)
RNA: GGGAGUUCUACAGUCCGACGAUCUGCCAUUAUUGAUUGUGUUGGUGUUUUUCAGCUGGUUCAUCUGUUGCUGUGUCUGUGUGCCCCCUCCUCCAGGGCCACCAGUGGGUUUCACAGGGCCUCUCAGCUGACCAUUUUGACUGGCAACAGAGGAUUGAGCAUCA
B12: chr3:8560387:8560388:+_ENSMUSG00000027500_ENSMUST00000029002|perfect_dup|motif|central (ssRNA)
RNA: GGGAGUUCUACAGUCCGACGAUCCAUACAUUCCCCAUCCUGAUAUCGCAUGAUCCAUUAUAAUAUAGGCAGGGGGAUUUACGGUUGGUGGGGCGUGCCAGACCCUCCCUUGCUUCAGCCAGACAGUUCAACCUGGAGUUCCUUCAACAGAGGAUUGAGCAUCA
B13: chr10:104572449:104572450:+_ENSG00000166272_ENST00000448841|hu_hu|FALSE|FALSE (ssRNA)
RNA: GGGAGUUCUACAGUCCGACGAUCGGGAUCGAUGCCCGGGGGACUGCCACCUGCAGGGCCACACUGUGGAGGCAGCAGCUGCUGCUGCUGUAGCUGGAAGGCACUGUAUGGUGGGGGAGGAGUUGGAGGUCGGUUCACCACUUCCAACAGAGGAUUGAGCAUCA
B14: chr3:9412954:9412955:+_ENSG00000134077_ENST00000452837|hu_mus|hu_hu_hu_mus_False|28_68 (ssRNA)
RNA: GGGAGUUCUACAGUCCGACGAUCGGUUGAUAUCUCUUCUUUGAUGGCUGGAUUUUCAUAAUAGUCCAAGAUAUGAGAAUCUGAAGUGCUGCUGGCAUGCUUUUUCUUAACAUUUCUCUCAUCUGCUUUGUCUCCUUGUCCACACAACAGAGGAUUGAGCAUCA
B15: chr7:17002144:17002145:+_ENSMUSG00000059273_ENSMUST00000098789|mus_hu|FALSE|FALSE (ssRNA)
RNA: GGGAGUUCUACAGUCCGACGAUCCUCAGGCCCUCCGGAGGUAUCCUGGGUCUCCUCUGCCCCAUCAUCUUCCAAUUCACCUUCUUCCAACUCUCCAUCUUCCCUGUCGUCAGGGAGCGGGAGGCGGUGGUGGAGGAGGUGCGGCAACAGAGGAUUGAGCAUCA
B16: chr1:66480114:66480115:+_ENSMUSG00000015222_ENSMUST00000024639|mus_hu|mus_mus_mus_hu_True|28_58 (ssRNA)
RNA: GGGAGUUCUACAGUCCGACGAUCUGGCCUGUGGCGGAUGUUCUUCAGAGAGCCACAUUUGGAUGUCACAUGGCUUAAGUCUAUCUUCUUGGUAACAAUUUGUACCUGACCCCCCUUAGGCUGGUAUUUGAUGUUGUCUGUUGACAACAGAGGAUUGAGCAUCA
B17: chr7:106631192:106631193:-_ENSMUSG00000030744_ENSMUST00000032998|mus_mus|FALSE|FALSE (ssRNA)
RNA: GGGAGUUCUACAGUCCGACGAUCCUUCAGCCAGCUCCCGAGUGAGAAAUUCAUUCAGCUCAGCUUUGAAGAUGCCAUCAGCUACAAACUUCCUCUUCUUGGAAAUCUGCACCGCCAUCUUGCAGCCGCGCGCCGCUGAAAGGACAACAGAGGAUUGAGCAUCA
B18: chr17:64801638:64801639:+_ENSG00000154229_ENST00000413366|hu_mus|hu_hu_hu_mus_False|58_58 (ssRNA)
RNA: GGGAGUUCUACAGUCCGACGAUCUAUAUAUAUAUAUACAUAUGUACACAUAUAUAGUAAAACCCUAGUUAAACGUGUAAACUAGCCAUUCAUUUUUAAAAUUACAUCUACAUUAAAAAAUUAAUAUAUCUGAUAGAGUGCCAGCAACAGAGGAUUGAGCAUCA
B19: 3701737_3703502_1075_CDS_ENSG00000130764_ENST00000378251|human|control|control (ssRNA)
RNA: GGGAGUUCUACAGUCCGACGAUCCUUCUCACAGAGAUCUUCGUGGAGCUUGGUCUGCGAGGUGAGGAAGCGCUUGAGUGCAUUCCCUGGCUGCAGGUCCAUGCCUCGCACCACGGCCCCCACAAUGUAGGGCCGCACAUCCCGCAACAGAGGAUUGAGCAUCA
B20: chr17:38556828:38556829:-_ENSG00000131747_ENST00000423485|hu_hu|motif|central (ssRNA)
RNA: GGGAGUUCUACAGUCCGACGAUCGGUCCAUGUUCUGACGGGAAGCUCUGAGAUUUCAAUGGUUGUAGAAUUAAGAAUAGCGGCUUCACCACUAAUCACAUAUUGAUUUGGAGCCAGUUCUUCAAUAGUACCCUUGAAGUUCUUCAACAGAGGAUUGAGCAUCA
B21: chr3:176767854:176767855:-_ENSG00000177565_ENST00000430069|hu_hu|hu_hu_hu_mus_False|48_98 (ssRNA)
RNA: GGGAGUUCUACAGUCCGACGAUCGACAUCCUUGUUACUUGGAACAUCCUGCCCUCCUUCCCGUAUGCAGUGUCUAAGCACGAGCUGUGUAGAGCCACUCGUGCUGUUCUCACUGAGGUUCCAGAUUCUUGCCGUGGAGUCUCCCAACAGAGGAUUGAGCAUCA
B22: 101158442_101158562_1428_3pUTR_ENSMUSG00000056537_ENSMUST00000070705|mouse|control|control (ssRNA)
RNA: GGGAGUUCUACAGUCCGACGAUCGUUUGAAUUGCAACAGAUGUAGUUUCACUUAAUCCAGUAUUUAAGAUUCUGCGAAUAGGAAUCCUGAUAGUACUCACAUAGGUUCUCACACCUGCACGUUCAGAACGGGAAAAGGUACGCCAACAGAGGAUUGAGCAUCA

Molecular target: T1, UNK ZnF1-3
Test: nsRBNS (natural sequence RNA bind-n-seq); RBNS binding buffer (assumed for nsRBNS): 25 mM Tris pH 7.5, 150 mM KCl, 3 mM MgCl2, 0.01% Triton X-100, 500 ug/ml BSA, 20 U/ml SUPERase-In, 4 C; UNK is unkempt and MSI1 is Musashi-1; names of the RNAs are library labels; protein concentration not given here; high values mean tight binding

| Binder | binding signal [enrichment R] |
| --- | --- |
| B1 | 1.56 |
| B2 | 0.627 |
| B3 | 2.32 |
| B4 | 1.35 |
| B5 | 0.722 |
| B6 | 1.07 |
| B7 | 2.04 |
| B8 | 2 |
| B9 | 0.412 |
| B10 | 0.969 |
| B11 | 0.693 |
| B12 | 1.28 |
| B13 | 0.934 |
| B14 | 0.538 |
| B15 | 0.698 |
| B16 | 0.615 |
| B17 | 0.871 |
| B18 | 1.44 |
| B19 | 0.47 |
| B20 | 0.794 |
| B21 | 0.608 |
| B22 | 0.934 |
